The source of these data is patent US6949366 (Amgen, dated 2005).

For one assay, the target named is T1, human B61 (human, UniProt P20827 19-182).
T1 construct: whole, on cells
T1 sequence (looked up): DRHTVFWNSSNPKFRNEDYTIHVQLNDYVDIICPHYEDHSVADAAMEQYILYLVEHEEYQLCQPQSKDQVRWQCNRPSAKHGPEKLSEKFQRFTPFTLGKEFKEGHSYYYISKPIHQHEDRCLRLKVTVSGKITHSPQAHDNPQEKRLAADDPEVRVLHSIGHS
Briefly: indirect Scatchard binding: hek/Fc titrated on CV1-EBNA-1 cells expressing B61, detected with 125I mouse anti-human IgG.

Assay [1] deals with T2, human hek ligand encoded by clone A2 (human, UniProt P52797 20-213, GPI anchor at the C-terminus after cleavage (likely on Ser 194 in the filing's numbering; site not determined)).
T2 construct: Expressed from the full-length clone A2 cDNA in pDC410 on CV1-EBNA-1 cells and held on the membrane by a GPI anchor; also called hek-L A2; hek ligand A2
T2 sequence: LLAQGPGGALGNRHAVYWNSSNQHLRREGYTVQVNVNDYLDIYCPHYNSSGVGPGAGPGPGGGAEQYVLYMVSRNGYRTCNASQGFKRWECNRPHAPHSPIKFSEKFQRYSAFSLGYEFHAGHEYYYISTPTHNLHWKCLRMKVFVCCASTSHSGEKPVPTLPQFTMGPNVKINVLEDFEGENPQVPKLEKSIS
Briefly: indirect Scatchard binding: hek/Fc titrated on CV1-EBNA-1 cells expressing hek-L A2, detected with 125I mouse anti-human IgG.

In assay [2] the target is T3, human hek ligand encoded by clone C6 (human, UniProt P52798 23-170, GPI anchor at the C-terminus after cleavage (likely on Ser 148 in the filing's numbering; site not determined)).
T3 construct: Expressed from the full-length clone C6 cDNA in pDC410 on CV1-EBNA-1 cells and held on the membrane by a GPI anchor; also called hek-L C6; hek ligand C6
T3 sequence: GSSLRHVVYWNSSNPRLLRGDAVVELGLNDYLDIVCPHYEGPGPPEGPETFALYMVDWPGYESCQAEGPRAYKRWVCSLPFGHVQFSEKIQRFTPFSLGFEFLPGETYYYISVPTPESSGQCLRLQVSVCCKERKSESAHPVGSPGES
Nature of the assay: indirect Scatchard binding: hek/Fc titrated on CV1-EBNA-1 cells expressing hek-L C6, detected with 125I mouse anti-human IgG.

Assay [3] addresses T4, human elk ligand (human, UniProt P98172 28-346).
T4 construct: whole, on cells
T4 sequence (looked up): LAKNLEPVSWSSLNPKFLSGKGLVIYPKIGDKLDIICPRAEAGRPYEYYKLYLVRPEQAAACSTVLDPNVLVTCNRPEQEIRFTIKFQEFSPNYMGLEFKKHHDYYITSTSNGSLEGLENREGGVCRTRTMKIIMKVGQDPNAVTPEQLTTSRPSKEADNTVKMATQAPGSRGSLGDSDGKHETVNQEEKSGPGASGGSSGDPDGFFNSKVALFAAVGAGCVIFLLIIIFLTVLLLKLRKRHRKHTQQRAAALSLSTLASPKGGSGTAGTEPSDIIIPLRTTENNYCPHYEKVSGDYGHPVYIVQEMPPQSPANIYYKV
Briefly: indirect Scatchard binding: hek/Fc titrated on CV1-EBNA-1 cells expressing elk-L, detected with 125I mouse anti-human IgG; biphasic, first component.

Assay [4] has as its target T4, human elk ligand. Briefly: indirect Scatchard binding: hek/Fc titrated on CV1-EBNA-1 cells expressing elk-L, detected with 125I mouse anti-human IgG; biphasic, second component.

B1: soluble human hek/Fc fusion protein (Fc fusion)
chain: ELIPQPSNEVNLLDSKTIQGELGWISYPSHGWEEISGVDEHYTPIRTYQVCNVMDHSQNNWLRTNWVPRNSAQKIYVELKFTLRDCNSIPLVLGTCKETFNLYYMESDDDHGVKFREHQFTKIDTIAADESFTQMDLGDRILKLNTEIREVGPVNKKGFYLAFQDVGACVALVSVRVYFKKCPFTVKNLAMFPDTVPMDSQSLVEVRGSCVNNSKEEDPPRMYCSTEGEWLVPIGKCSCNAGYEERGFMCQACRPGFYKALDGNMKCAKCPPHSSTQEDGSMNCRCENNYFRADKDPPSMACTRPPSSPRNVISNINETSVILDWSWPLDTGGRKDVTFNIICKKCGWNIKQCEPCSPNVRFLPRQFGLTNTTVTVTDLLAHTNYTFEIDAVNGVSELSSPPRQFAAVSITTNQAAPSPVLTIKKDRTSRNSISLSWQEPEHPNGIILDYEVKYYEKQEQETSYTILRARGTNVTISSLKPDTIYVFQIRARTAAGYGTNSRKFEFETSPDSFSISGESSQ[human IgG1 Fc not listed]
For the molecule B1, the Ka with human B61 was 5.5e+07 M⁻¹; in assay [1] it was 2e+08 M⁻¹; in assay [2] it was 2e+08 M⁻¹; in the assay with human elk ligand [3], 2.3e+07 M⁻¹; with human elk ligand [4], 2.9e+06 M⁻¹.
